Results published in PubChem BioAssay AID445 (National Center for Advancing Translational Sciences (NCATS), 2006).
Out of some 110,000 compounds screened, about 40 (0.04%) were called active. Inconclusive results, whose numbers are uncertain, are shown with a selection of clear calls. Calls come from the whole dose curve; as a rule, active = well fitted curve in the direction sought with a large enough effect in the signal ratio (not every such curve was filed as active); inconclusive = small, poorly fitted or top-dose-only effect, or a change in a side signal; inactive = flat fitted curve, though single readings scatter; the % refers to the signal ratio. Potencies of inconclusive entries are doubtful fits and often do not repeat.

Assay: IkB Signaling;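 for IkBa stabilization activation: 0% = basal untreated cells and 100% = reference inhibitor full response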
Details: ABC-DLBCL IkBa-CBG/CBR dual luciferase ratio (green luciferase fused to IkBa over red control in OCI-Ly3 lymphoma cells), 4 h; IkBa stabilization activation: at 57.1 µM (top of the series), scaled: untreated 0%, proteasome inhibitor 100% unless noted
How it was run: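 Luminescence ratio of IκBα-fused green versus native red beetle luciferase in OCI-Ly3 cells, 4 h post-doxycycline with compound; red signal alone, scaled from basal (0%) to zero light (-100%), flagged nonspecific or cytotoxic effects.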
Potency is the fitted concentration of half-maximal effect.

Row | Compound | IkBa stabilization activation | Potency
1 | CCCNC(=O)c1cnn2c(C)c(Cc3c(C)cc(C)cc3C)c(C)nc12 | inconclusive: -4.05% [signal inhibitor] | 
2 | COc1ccc(NC(=O)c2cc3nc(-c4ccc(Cl)c(Cl)c4)cc(C(F)(F)F)n3n2)c(OC)c1 | inactive | 
3 | Oc1[nH]c2ccccc2c1C=Nc1ccc2c(c1)OCCO2 |  | inconclusive: 20 µM [signal inhibitor, partial curve]
4 | Cc1noc(C)c1C(=O)N1CCC2(CC1)CCN(c1cccc(-c3ccccc3)c1)CC2 | inactive: 7.01% [at 11.4 µM, scaled: untreated 0%, proteasome inhibitor 100%] | 
5 | O=C(CC1CCCC1)Nc1nc2ccccc2[nH]1 | inconclusive: 8.27% [signal inhibitor] | 
6 | O=C(c1cc2c(s1)CCCC2)N1CCN(Cc2ccc3c(c2)OCO3)CC1 | inconclusive: 2.62% [signal inhibitor] | 
7 | COc1ccc(-n2nc3c(N4CCCC(C(=O)NCc5ccc(C)cc5)C4)nnc(C)c3c2C)cc1 (configuration not stated) | inconclusive: -2.13% [signal inhibitor] | 
8 | Cc1sc2ncn(CC(=O)Nc3ccc(F)cc3F)c(=O)c2c1S(=O)(=O)N1CCC(C)CC1 |  | inconclusive: 7.94 µM [signal inhibitor, full curve]
9 | Cc1c(-c2nnc(SCC(=O)Nc3ccccc3F)o2)nnn1-c1ccc(F)cc1 | inconclusive: 2.98% [signal inhibitor] | 
10 | COc1cc(C(=O)N2CCN(C(=O)COc3ccc4ccccc4c3)CC2)cc(OC)c1OC | inactive | 
11 | COc1ccc(CNC(=O)CCc2cn(C)c3ccccc23)cc1 | inconclusive: 1.69% [signal inhibitor] | 
12 | c1ccc2c(c1)CCN(c1nc3ccccc3n3cnnc13)C2 | inconclusive: 4.9% [signal inhibitor] | 
13 | Cc1ccc(CCNC(c2ccc(F)cc2)c2nnc(-c3ccccc3Cl)o2)cc1 (configuration not stated) | inconclusive: -1.78% [signal inhibitor] | 
14 | COc1cccc(N2CCN(S(=O)(=O)c3cn(C)c(C)n3)CC2)c1 | inconclusive: -2.05% [signal inhibitor] | 
15 | CCOC(=O)N1CCN(C(=O)c2nc3ccccc3s2)CC1 |  | inconclusive: 1 µM [signal inhibitor, full curve]
16 | CCCCN1C(=O)c2[nH]nc(-c3ccccc3O)c2C1c1ccc(C(C)(C)C)cc1 (configuration not stated) | inconclusive: -0.231% [signal inhibitor] | 
17 | O=C(Nc1cccc(Cl)c1)c1ccc2nc(CCc3ccccc3)oc2c1 | inconclusive: 2.81% [signal inhibitor] | 
18 | CC(=O)NC1CC(=O)N(c2ccc3c(c2)OCCO3)C1 (configuration not stated) | inactive | 
19 | Cc1ccc(-c2nc3cc(Cl)ccc3o2)cc1NC(=O)c1cc([N+](=O)[O-])ccc1N1CCOCC1 |  | inconclusive: 3.98 µM [signal inhibitor, partial curve]
20 | CCC(=O)N1CCc2cc(Br)cc(S(=O)(=O)N3CCC(C(=O)Nc4ccccc4CC)CC3)c21 | inconclusive: 1.47% [signal inhibitor] | 
21 | COc1cccc(C2CC(=O)Nc3cc4c(cc32)OCO4)c1OC(C)C (configuration not stated) |  | inconclusive: 39.8 µM [signal inhibitor, single point]

Row | Compound | IkBa stabilization activation | Potency
22 | Cc1nc(-c2ccccc2)sc1-c1ccc(SCC(=O)Nc2cccc(C(F)(F)F)c2)nn1 | inactive | 
23 | CCc1nn(CCCC(=O)N2CCN(c3cc(Cl)ccc3C)CC2)c(=O)c2cc3occc3n12 | inconclusive: 5.24% [signal inhibitor] | 
24 | CCOc1ccc2nc(NC(=O)C3CCCN(S(=O)(=O)c4c(C)noc4C)C3)sc2c1 (configuration not stated) | inconclusive: 6.85% [signal inhibitor] | 
25 | CCOC(=O)N1CCC(N2CCN(S(=O)(=O)c3ccc(NC(C)=O)cc3)CC2)CC1 | inconclusive: 10.7% [signal activator] | 
26 | C=CS(=O)(=O)c1ccc(Oc2ccc(S(=O)(=O)C=C)cc2)cc1 |  | inconclusive: 0.794 µM [signal inhibitor, partial curve]
27 | COc1ccc(CC(=O)NC2CC(=O)N(c3cccc(F)c3)C2)cc1OC (configuration not stated) | inconclusive: -1.24% [signal inhibitor] | 
28 | Cc1c(C(=O)OC2CCCCC2)[nH]c2c1C(=O)CC(C)(C)C2 | inactive | 
29 | Cc1cc(C(=O)NC2=NCCS2)cs1 | inactive | 
30 | CC(C)Oc1ccc2c(=O)c3cc(C(=O)O)ccc3oc2c1 | inactive | 
31 | COc1ccc(N2C(=O)c3ccc(NC(C)=O)cc3C2=O)cc1 | inactive | 
32 | Cc1ccc(C2=Nc3ccccc3N(CC(=O)Nc3ccccc3F)C(=O)C2)cc1C | inconclusive: -4.42% [signal inhibitor] | 
33 | Cc1c(C(=O)Nc2ccc(F)c(Cl)c2)oc2ccc(S(=O)(=O)N(C)C3CCCCC3)cc12 | inconclusive: 1.55% [signal inhibitor] | 
34 | Cc1oc2ccc(O)c(CN3CCCCC3)c2c1C(=O)Nc1cccc(C(F)(F)F)c1 | inconclusive: -0.229% [signal inhibitor] | 
35 | COc1cc(C(=O)O[C@@H]2CC(C)=CC[C@@]3(C)CC[C@](O)(C(C)C)[C@H]23)ccc1O | inactive: 0.625% [at 11.4 µM, scaled: untreated 0%, proteasome inhibitor 100%] | 
36 | COc1cccc(-c2ccc3ncnc(NCc4cnc(C)cn4)c3c2)c1 | inactive: 3.57% [at 11.4 µM, scaled: untreated 0%, proteasome inhibitor 100%] | 
37 | O=C(CSc1nc2ccccc2c(=O)n1Cc1ccco1)c1ccc(F)cc1 | inactive | 
38 | COCc1c(C(=O)OCC(=O)c2c(N)n(CC(C)C)c(=O)n(C)c2=O)oc2ccccc12 | inconclusive: 4.88% [signal inhibitor] | 
39 | COc1ccccc1-c1nc(SCc2ccccn2)n[nH]1 |  | inconclusive: 31.6 µM [signal inhibitor, partial curve]
40 | COc1ccc(C)cc1NC(=O)CSc1nnc(COc2ccccc2)n1Cc1ccco1 | inconclusive: -1.37% [signal inhibitor] | 
41 | CCCCN(CC)C(=O)c1cc2c(=O)n3ccccc3nc2n1C | inactive | 
42 | Cc1nn(C)c2c1c(C(F)(F)F)cc(=O)n2CC(=O)N1CCCCC1C (configuration not stated) | inconclusive: 1.95% [signal inhibitor] | 
